Assay results as given in PubChem BioAssay (NCI).
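Five compound concentrations were applied to cells in 96-well plates for 48 hours; endpoints were derived by simple linear interpolation of the resulting dose-response curve. Abbreviation: GI50, concentration required for 50% inhibition of growth. At the TGI there is no net growth.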

The molecules below were run on NCI-H322M lung (assay: NCI-60 cell line screen, 48 h).
Work on `S=C(NCCc1ccccc1)Nc1ccc(OCc2nc3ccc(Cl)cc3[nH]2)cc1` yielded a GI50 of 10.7 µM and a TGI of 22.5 µM. `CC(=O)N1CCN(Cc2ccc3c(NNC(=O)c4cnccn4)nc4cc(F)ccc4n23)CC1` gave a GI50 of 0.347 µM and a TGI of 53 µM. `Clc1cccc(N/N=C/c2c[nH]c3ccc(Br)cc23)n1` was tested, and the GI50 was 11.2 µM and the TGI was 23.2 µM. `CCCCSc1nc(Nc2ccc(/C(C)=N/NC(N)=S)cc2)c(C#N)c(-c2ccc(OC)cc2)n1` gave a GI50 of 20.7 µM and a TGI of 63.7 µM. For `CCCCCc1ccc(S(=O)(=O)N(C(C)=O)c2cc(-c3csc(N(C)C(C)=O)n3)ccc2N2CCN(C)CC2)cc1`, the GI50 was 8 µM and the TGI was 15.6 µM. `COc1ccc2c(c1)c(-c1cc(N)n3nc(-c4c[nH]c5ccccc45)cc3n1)cn2C` was tested, and the GI50 was 1.85 µM and the TGI was 4.1 µM.
